Here are results for 42 sequences from PMC7819943, “Rice protein-binding microarrays: a tool to detect cis-acting elements near promoter regions in rice”.

The other results are listed elsewhere or left out.

This test concerns the target T1, OsWOX13 (Oryza sativa, UniProt Q5QMM3 1-267).
T1 sequence: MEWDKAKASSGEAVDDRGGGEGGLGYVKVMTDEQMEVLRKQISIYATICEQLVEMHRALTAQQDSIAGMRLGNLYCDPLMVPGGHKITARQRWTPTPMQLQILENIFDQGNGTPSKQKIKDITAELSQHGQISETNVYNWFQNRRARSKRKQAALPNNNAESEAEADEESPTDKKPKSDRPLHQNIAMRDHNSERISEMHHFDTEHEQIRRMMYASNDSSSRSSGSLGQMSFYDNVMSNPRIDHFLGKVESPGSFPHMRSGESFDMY
The test can be described thus: protein-binding microarray (RPBM); PBS, 2% BSA, 51.3 ng/ul salmon testes DNA, 50 uM zinc acetate, 200 nM TF, 25 C, 1 h; high values mean tight binding. Conditions: protein: recombinant; tags: N-terminal polyhistidine and DsRed monomer fusion (pET32a); label: CyDye5-dUTP incorporated in the synthesized complementary strand; 3' TTTTT single-stranded linker to array surface; dsDNA, one strand shown. Put shortly:
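The binding signal is fluorescence intensity per array feature (arbitrary units). Readings came from an Axon 4000B scanner after a washed, 2% BSA-blocked, double-stranded custom Agilent array had been incubated for 1 h at 25 °C with 200 nM protein and 50 µM zinc acetate. The protein was a Ni–NTA-purified transcription factor fused N-terminally to polyhistidine and DsRed, expressed in E. coli BL21-CodonPlus.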
Turning to “TAATTAAGCTGAAAATTTTATTGACAGAAACAACGCAAAGCGGAGTCACCTAGTGCAG”, the binding signal is 3500 fluorescence intensity (a.u.).

Take “ACAGAAATAAATGATTTATCTAAATGTTATTAATGAAATCCGGAGTCACCTAGTGCAG”: the binding signal is 10900 fluorescence intensity (a.u.). On to “TACTTAATTAATCATGTGCTAATGGCTAACCTCGTTTTGCCGGAGTCACCTAGTGCAG”, for which the binding signal is 33300 fluorescence intensity (a.u.). The same measure for “GAAGGGTTATGATTGGTTGAGAAGAGAATGTTGGTGGAGACGGAGTCACCTAGTGCAG”: 22100 fluorescence intensity (a.u.); for “AGATAGATTAATATATGATAAATCACTAATATCAAATTTACGGAGTCACCTAGTGCAG”: 5780 fluorescence intensity (a.u.); for “ACAACTACTGATTATATTCTTATATATTTATTGTGCTTTTCGGAGTCACCTAGTGCAG”: 7360 fluorescence intensity (a.u.). The figure for “CCTGCCATCAACTGAAATTGAATTTGTCAACGACAGTCAACGGAGTCACCTAGTGCAG” is 9020 fluorescence intensity (a.u.); for “TGCTAATTTTCAAGTTTCCCATTCATCACACATGATCGCACGGAGTCACCTAGTGCAG” it is 14700 fluorescence intensity (a.u.). The figure for “AGTTGGTAGCAATTGATTGATTCCCCGTCACACGCACGCACGGAGTCACCTAGTGCAG” is 40000 fluorescence intensity (a.u.); for “ATCTATAATTAGATTGATATGATTATCTTGTGTACAACAACGGAGTCACCTAGTGCAG” it is 37800 fluorescence intensity (a.u.); for “AATATAACTTCTGTCAACAGTTACTATATAGCCGTGCCTCCGGAGTCACCTAGTGCAG” it is 3990 fluorescence intensity (a.u.). On to “GCTCGATCATTCTACTTAATTAATTTGCAACTTAATTTGTCGGAGTCACCTAGTGCAG”, for which the binding signal was 20200 fluorescence intensity (a.u.). The same measure for “TGAAGAAATTCAATCATATGGAAAGCTTTCCACTAAGGCCCGGAGTCACCTAGTGCAG”: 6630 fluorescence intensity (a.u.).

On to “ACTAACTAATTCATAGTTTTGATCGTTTGGCCAACGGGTGCGGAGTCACCTAGTGCAG”, for which the binding signal is 7540 fluorescence intensity (a.u.).

For the sequence “AACATCAATTACAAAAGGGTTTTCTCTATCTAATAATTGACGGAGTCACCTAGTGCAG”, the binding signal was 6300 fluorescence intensity (a.u.). Consider “TTCCCTAAATTTGCAAACGCCATATGAACATTCGTTCATGCGGAGTCACCTAGTGCAG”, for which the binding signal was 5720 fluorescence intensity (a.u.). The same measure for “TGTATGTGTGTACTCGTAATTAGTGAGAATTTAAATTCATCGGAGTCACCTAGTGCAG”: 3820 fluorescence intensity (a.u.). The figure for “ATAACAATCATAGTGGCAAATTAAAGCGTGTAATGATGCACGGAGTCACCTAGTGCAG” is 15500 fluorescence intensity (a.u.); for “CAAATTAATTTGTCCAGATGTTAAATGCTGTTGTTCTTTACGGAGTCACCTAGTGCAG” it is 35600 fluorescence intensity (a.u.). As to “TGGAATGATGTGATGGAAAAGTTGAAAGTTTGTGTGTGTACGGAGTCACCTAGTGCAG”, the binding signal was 5390 fluorescence intensity (a.u.). On to “TTTAATTTGATGGTAAAAGGGAAATCAAGGAAAGGAGAATCGGAGTCACCTAGTGCAG”, for which the binding signal was 15700 fluorescence intensity (a.u.). For “CCTAACTTGACAGCAATCAGTTTCAAGTGGCCAAGTGCCACGGAGTCACCTAGTGCAG”, the binding signal was 25100 fluorescence intensity (a.u.). The same measure for “CGGTGACAAGCGAGATGAAAGATTGAAGCAACTCTTCACGCGGAGTCACCTAGTGCAG”: 3900 fluorescence intensity (a.u.). For “TTTGATAGTTAGTTCTGTTACCAATCAAATGTTTATGTTGCGGAGTCACCTAGTGCAG”, the binding signal is 15900 fluorescence intensity (a.u.). Consider “CAAAATAGACTTATTACAATCATTCAAATATGGCCCGAAGCGGAGTCACCTAGTGCAG”, for which the binding signal was 15100 fluorescence intensity (a.u.). The figure for “AGTCATTAATGTATAATTAATTTAGTTTAATTATTATTGACGGAGTCACCTAGTGCAG” is 47200 fluorescence intensity (a.u.).

On to “ATTCTAAATGACTAATTTATTCCTAAAGTTATATAACTCACGGAGTCACCTAGTGCAG”, for which the binding signal is 6400 fluorescence intensity (a.u.).

In the case of “CAGATAGCATAAAATTGAAGGTGACCATCATCAACTGTATCGGAGTCACCTAGTGCAG”, the binding signal is 3380 fluorescence intensity (a.u.). The figure for “ACTGATTGATTTGGAAGGAGAGAAATACTATGTTGGGTTTCGGAGTCACCTAGTGCAG” is 63700 fluorescence intensity (a.u.); for “CAAATTAGCCCACAATCATAAATTACCAAATTGCCCTTGACGGAGTCACCTAGTGCAG” it is 14900 fluorescence intensity (a.u.). Take “ATATATCTAACCATAATTAATTAACAATTAACCTGTGTTACGGAGTCACCTAGTGCAG”: the binding signal was 21800 fluorescence intensity (a.u.).

Regarding “TCCTAATCTTCTTAATTTTGCACTCTCTCCAAATTTTGATCGGAGTCACCTAGTGCAG”, the binding signal was 7980 fluorescence intensity (a.u.). The figure for “CTAGGGTAAAATCACAATTGAGATTGAAAGCTGGGGTATACGGAGTCACCTAGTGCAG” is 7170 fluorescence intensity (a.u.); for “ATGATAGACAGATAATTCTACAAACAAATTCGGATTTCTTCGGAGTCACCTAGTGCAG” it is 35000 fluorescence intensity (a.u.). The figure for “AGTTAGCTGTAATTACATCATGATTGTACTGTATTTACGTCGGAGTCACCTAGTGCAG” is 29300 fluorescence intensity (a.u.). In the case of “AGTGATAGATTTACACAGCTTGGTTATTATCTACTTCCTTCGGAGTCACCTAGTGCAG”, the binding signal is 33600 fluorescence intensity (a.u.). Regarding “ATGATTTATTTTGCAACATTTTCTTTTATATCGCTTAGGACGGAGTCACCTAGTGCAG”, the binding signal was 11900 fluorescence intensity (a.u.). The same measure for “ATGTCGTCATTATGTGATTAACACAAGAACGCTTGTTCGTCGGAGTCACCTAGTGCAG”: 5300 fluorescence intensity (a.u.). “TGTGATTGTGATCCATTGATTAGGTCAAGCATCGCCTTGACGGAGTCACCTAGTGCAG”: the binding signal was 43200 fluorescence intensity (a.u.).

Turning to “GACTGATGGACACACCACAAGCGCCGGGTCAACCCGCGGTCGGAGTCACCTAGTGCAG”, the binding signal was 13500 fluorescence intensity (a.u.). As to “AATTTAATCTTTAATTAATTTATTTCTCGCCTCTCTTAACCGGAGTCACCTAGTGCAG”, the binding signal is 4610 fluorescence intensity (a.u.). The same measure for “GTCAAACCTTTAAATTGACCTCACATGCATGCGTATAGGTCGGAGTCACCTAGTGCAG”: 3330 fluorescence intensity (a.u.).
